# Results taken from PubChem BioAssay AID1479 (National Center for Advancing Translational Sciences (NCATS), 2009).
# In all, about 280,000 compounds went through this assay and about 820 (0.29%) were called active. The inconclusive results got no clear call from the source; some entries with a clear call stand among them for comparison. The call rests on the fitted dose curve; in most records, active means well fitted curve in either direction with a large enough effect; inconclusive means small, poorly fitted or top-dose-only effect; inactive means flat fitted curve, though single readings scatter. No potency is given beside an inconclusive call; the fits are too rough.
# Assay: Total Fluorescence Counterscreen for Inhibitors of the Interaction of Thyroid Hormone Receptor and Steroid Receptor Coregulator 2
# Conditions: TRb/SRC2 Texas Red total fluorescence interference; series mostly up to 106 µM; fluorescence change, negative = quenching: at the top concentration
# Method in brief: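 Flags fluorescent or light-absorbing compounds by total fluorescence, S + 2P, at 555 nm excitation and 632 nm emission. Mixture: 20 nM Texas Red SRC2 peptide, 0.6 uM human TRb LBD, 1 uM T3, 5% DMSO; compound exposure 5 h at ambient temperature.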
# On the % scale 0 is the no-effect control and ±100 the full control effect; potency means the concentration at half of the fitted maximal effect; tags describe the fitted curve by direction and shape or compound fluorescence and quenching.
SMILES,"fluorescence change, negative = quenching",Potency
O=C(CNc1ccc2ccccc2c1)N/N=C/c1ccc(OC(=O)/C=C/c2ccco2)cc1,inactive: 2.09%,–
N=C(N)SCc1nc2ccccc2c(=O)n1-c1ccccc1,–,inactive
Cc1cccc(CSc2nc3cccnc3n2Cc2ccc(C(=O)NCc3ccco3)cc2)c1,–,"inconclusive [quencher, full curve]"
O=C1c2ccccc2C(=O)N1/N=C/c1ccc(O)c(O)c1O,–,"inconclusive [quencher, partial curve]"
O=C(C1CCCO1)N1CCN(Cc2nc3ccccc3c(=O)[nH]2)CC1 (stereo unspecified),inactive: -1.89%,–
COc1ccc(-c2oc3ncn4nc(-c5ccccc5Cl)nc4c3c2-c2ccc(OC)cc2)cc1,–,"inconclusive [falling, full curve, poor fit]"
O=C(Nc1cc(S(=O)(=O)N2CCCCC2)ccc1Cl)c1ccccc1NS(=O)(=O)c1ccc(F)cc1,inactive: -16.8%,–
COc1cc(OC)c2c(-c3ccccc3)cc(=O)oc2c1C(CC(=O)N1CCCC1)c1ccc(N(C)C)cc1 (stereo unspecified),inactive: -3.36%,–
NC(=O)c1ccc(-n2nnnc2SCC(=O)c2ccc(O)c(O)c2)cc1,–,active: 50.1 µM [quencher]
CC(=O)C1(O)Cc2c(O)c3c(c(O)c2C(OC2CC(N)C(O)C(C)O2)C1)C(=O)c1c(O)cccc1C3=O (stereo unspecified),–,active: 44.7 µM [fluorescent]
CNC(=O)c1c(NC(=O)c2ccc(S(=O)(=O)N3CCCC(C)C3)cc2)sc2c1CCC2 (stereo unspecified),–,"inconclusive [quencher, full curve]"
CC1(C)c2ccccc2N2CC(=O)N(CC(N)=O)C21C (stereo unspecified),–,active: 50.1 µM [fluorescent]
CCc1ccc(N2CCn3c2nc2c3c(=O)n(CCc3ccccc3)c(=O)n2C)cc1,–,"inconclusive [quencher, full curve]"
N#Cc1c(N(CCO)CCO)nc(N)c2c(N)nc3c(c12)CC(=O)N3Cc1cccs1,inactive: -1.58%,–
O=C(N/N=C/c1cccc(OCc2ccccc2)c1)c1ccc(Br)cc1,–,"inconclusive [falling, partial curve, poor fit]"
CCc1cccc(NC(=O)CC2Oc3ccc(C)cc3NC2=O)c1 (stereo unspecified),–,"inconclusive [falling, full curve, poor fit]"
CC1Cc2ccccc2N1C(=O)CSc1nnc(-c2cccc(Cl)c2)o1 (stereo unspecified),–,"inconclusive [falling, partial curve, poor fit]"
Cc1cc(C)c(/C=C/c2onc(C)c2S(=O)(=O)N2CCC(C(=O)Nc3ccc(Cl)c(C(F)(F)F)c3)CC2)c(C)c1,inactive: -10.4%,–
CC(C)c1ccc(NC(=O)CCS(=O)(=O)c2ccc(Br)s2)cc1,–,active: 28.2 µM [quencher]
Cc1cc(=O)[nH]c(NN=C(CC(C)C)CC(C)C)n1,–,"inconclusive [falling, full curve, poor fit]"
COc1ccc(-c2nc3ccccc3s2)cc1NC(=O)c1ccccc1OC,–,"inconclusive [falling, full curve, poor fit]"
COC(=O)c1ccc(NS(=O)(=O)c2ccc3[nH]c4c(c3c2)CCCCC4)cc1,–,"inconclusive [quencher, full curve]"

SMILES,"fluorescence change, negative = quenching",Potency
CC1=C(C(=O)Nc2ccc(C)cc2C)C(c2ccc(C(C)C)cc2)n2nc(C(F)(F)F)nc2N1 (stereo unspecified),–,"inconclusive [falling, full curve, poor fit]"
Cc1cccc(-n2cc(-c3ccccc3)nc2SCC(=O)Nc2ccccc2Cl)c1,–,"inconclusive [falling, full curve, poor fit]"
COc1ccc(CNC(=O)CCc2c(C)nc3c(c2C)c(=O)n(C)c(=O)n3C)cc1,–,"inconclusive [falling, full curve, poor fit]"
CCCOC(=S)N/C(=N\S(=O)(=O)c1ccccc1)c1ccccc1,inactive: -7.14%,–
Cc1ccc(-c2nnc(Nc3ccc(C(N)=O)cc3)c3ccccc23)cc1S(=O)(=O)N1CCCCC1,–,"inconclusive [falling, full curve, poor fit]"
Cc1ccc(NC(=O)c2cc(-c3ccc4c(c3)OCO4)on2)cc1,–,"inconclusive [quencher, partial curve]"
CCCCSc1ncnc2c1sc1nc(N3CCOCC3)c3c(c12)CCCC3,–,"inconclusive [falling, full curve, poor fit]"
Cc1cc2c(cc1S(=O)(=O)CCC(=O)N1CCN(c3ccccc3)CC1)OCC(=O)N2,–,"inconclusive [falling, partial curve, poor fit]"
COc1cccc(C(=O)NC2=NC(c3ccccc3F)CC(=O)N2)c1 (stereo unspecified),–,"inconclusive [falling, full curve, poor fit]"
CCc1ccc(Nc2nc(-c3cc4cccc(OC)c4oc3=O)c(CC)s2)cc1,–,"inconclusive [quencher, full curve]"
COc1ccc2nc(-c3ccccc3)cc(OC)c2c1,inactive: 2.27%,–
CN(C)c1ccc(N/C=C/C(=O)C(C)(C)C)cc1,–,"inconclusive [fluorescent, partial curve]"
CC1=NS(=O)(=O)c2cc(Cl)ccc2N1,–,"inconclusive [quencher, full curve]"
CCSC1=NC2(CCN(C(=O)NC3CCCCC3)CC2)N=C1c1ccc(OC)cc1,–,"inconclusive [falling, partial curve, poor fit]"
CCSc1n[nH]c(=S)s1,inactive: 0.809%,–
CC(O)c1n(C)c(Cl)c[n+]1C (stereo unspecified),inactive: -0.499%,–
CCc1cccc(NC(=O)CN2C(=O)COc3ccc(S(=O)(=O)N4CCC(C)CC4)cc32)c1,inactive: -0.0957%,–
Cc1ccc(CNC(=O)Cn2cc(S(=O)(=O)Cc3ccccc3Cl)c3ccccc32)cc1,inactive: -10.6%,–
COc1cc(OC)c(NC(=O)N2CCSc3ccccc32)cc1Cl,–,"inconclusive [quencher, full curve]"
COc1ccc(CNC(=O)c2cnc3sc(N4CCOCC4)nn3c2=O)cc1,–,active: 501 µM [quencher]
O=C(COC(=O)c1c(F)cccc1F)c1ccc[nH]1,–,active: 15.8 µM [fluorescent]
CCCCOc1ccc(/C=C/C(=O)OCC(=O)NC(=O)NCC(C)C)cc1OCC,–,"inconclusive [falling, full curve, poor fit]"

SMILES,"fluorescence change, negative = quenching",Potency
Cc1ccc2occ(/C=N/NC(N)=S)c(=O)c2c1,–,active: 0.355 µM [quencher]
CCOc1ccc(OCC)c(NC(=O)c2cc(S(=O)(=O)N3CCCC3)cn2C)c1,–,"inconclusive [quencher, full curve]"
COc1ccccc1CNC(=O)c1ccc(Cn2c(SCc3ccccc3)nc3cccnc32)cc1,–,"inconclusive [quencher, full curve]"
N#Cc1ccccc1CN1C(=O)c2ccccc2Sc2ccc(C(=O)OCc3ccco3)cc21,–,"inconclusive [falling, full curve, poor fit]"
Cc1cc(NC(=O)c2cc(-c3cccc(Cl)c3)on2)n(-c2ccccc2)n1,–,"inconclusive [quencher, full curve]"
CCOc1ccc(C2=CC(c3cccc(Br)c3)n3c(nc4ccccc43)N2)cc1Cl (stereo unspecified),–,"inconclusive [falling, partial curve, poor fit]"
COc1cc(-c2cc3n(C)c(C)c(CCC(=O)O)c(=O)n3n2)cc(OC)c1OC,inactive: -1.7%,–
CCOc1ccc(NC(=O)C2CCN(C(=O)N3CC(C)Oc4ccc(Cl)cc43)CC2)cc1 (stereo unspecified),–,active: 100 µM [quencher]
CCN1C(=O)c2ccccc2Sc2ccc(NC(=O)Nc3cccc([N+](=O)[O-])c3C)cc21,–,active: 0.0005 µM [quencher]
CCCSc1ncc(Cl)c(C(=O)N(Cc2ccc(Cl)cc2)Cc2ccco2)n1,–,"inconclusive [falling, full curve, poor fit]"
CCc1cccc(NC(=O)CN(C)S(=O)(=O)c2ccc3[nH]c4c(c3c2)CCCC4)c1,–,"inconclusive [quencher, full curve]"
C[C@H]1Cc2c(-c3ccccc3)nc3c(c2CO1)CN(C(=O)NCc1ccco1)CC3,inactive: -2.62% [at 11.2 µM],–
CN1C(=O)/C(=C\C=C2/CCCN2C)N(C)C1=S,inactive: 0.519%,–
COc1ccc(CNC(=O)C2CCN(C(=O)N3CCOc4ccc(Cl)cc43)CC2)cc1,–,"inconclusive [falling, full curve, poor fit]"
COc1ccc2c(C)c(CCC(=O)NCc3ccccc3Cl)c(=O)oc2c1C,–,"inconclusive [falling, full curve, poor fit]"
Cc1cc(SCC(=O)Nc2ccc(O)cc2)n2nc(C)c(-c3ccccc3)c2n1,inactive: -1.4%,–
CCOC(=O)c1c(C)n(-c2ccccc2)c2ccc(OC(=O)c3c(F)cccc3F)cc12,–,"inconclusive [falling, full curve, poor fit]"
CC(C)c1ccc(N2C=Nc3ccc(C(C)C)cc3C2)cc1,inactive: 1.43%,–
Cc1ccc(NC(=O)C2CCCN2S(=O)(=O)c2cccc3cccnc23)c(C)c1 (stereo unspecified),–,"inconclusive [quencher, full curve]"
COc1cc([C@@H]2Nc3c(F)cccc3[C@@H]3C=CC[C@@H]32)cc(Br)c1OC,inactive: -2.93%,–
COc1cc(COCC(O)CN2CCN(CCN3C(=O)c4cccc5cccc(c45)C3=O)CC2)cc(OC)c1OC (stereo unspecified),–,"inconclusive [quencher, partial curve]"
CCc1nn(CC(=O)NCCCc2ccccc2)c(=O)c2cc3cc(F)ccc3n12,–,"inconclusive [falling, full curve, poor fit]"
